# Source: the supplement of paper PMC11417369
# Some of the results follow.
# Test system: PfSIP2 AP2 domain 1 (GST-tagged)
# Assay: gcPBM binding intensity (ln(normalized median fluorescence intensity)); higher = stronger DNA binding
# How it was run: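 GST-fused DNA-binding domains of P. falciparum, expressed in E. coli, were applied at about 25 μg on average for 1 h to an Agilent 4 × 180k array of primer-extended double-stranded 36-bp intergenic genomic probes and negative controls. Binding intensity is the highest Masliner-normalised natural-log median intensity across replicate spots of either probe orientation, measured with Alexa488 anti-GST antibody and a 488 nm scan.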
row,Sequence,gcPBM binding intensity (ln)
1,CCCAATAATTAAACAACACACATATATATATGTAAT [CACACA_site3084],6.95
2,ATAAAATACAGATAAACACACATATAAACACCCATA [CACACA_site5381],7.17
3,CTTTATTTTTTATACACACACAATATGTATAAATAT [CACACA_site7638],7.26
4,TTTATAAAATTATTTGCATGTAACAATTATAAATTG [TGCATGCA_site1026],6.69
5,TTTTTTTTTCTTTCTCTTTAAATATTAATTAAAAAA [GTGCAC_negctrl_site90],6.86
6,AAAATATAAATATATTGTACTGTTATATAATAAAAT [XGTACX_site2132],7.04
7,AATGTGAAATATAAATGTACATAAATATATATATAT [XGTACX_site8710],9.07
8,TAACTATCATGTATTACACACAATATTTATTATAGA [CACACA_site7301],6.95
9,TAAAAAAAAATAAATACATGCATATAATACATTATA [TGCATGCA_site518],6.77
10,TAATGAGGAAAAAGTGTGTTAAGATTTTATAATTTA [GTGCAC_negctrl_site608],6.59
11,TGAACATGTTAAAATAAACACACAGCTAAGGTTTTT [CACACA_site7934],6.62
12,ATATATATATTAACAATACACACGTGTATACCTTAT [CACACA_site2217],8.63
13,TATCATATAAATACATGTACATATTTGGAAAATAAT [XGTACX_site5373],6.96
14,CATCATAGCATTCCTCGTACAAATATAAACATATCA [XGTACX_site2711],7.25
15,TAGTAAATAACAAAAGGAAAAATTAATGAGGCAAAA [TGCATGCA_negctrl_site526],6.85
16,CATATACACGAACACACACACATATATATATATATA [CACACA_site4437],9.85
17,ATGTTTTGTAAAATGATTAAATATTAAGATTCAATA [CACACA_negctrl_site1743],6.7
18,CTTAGAGTATTTAAATGTACACGTTTGTATATGTAT [XGTACX_site1767],6.95
19,ATAAATAAATACATATGTACATATATATATATATAT [XGTACX_site7145],9.53
20,TCAGTTAATGTATATGTACACACGGGGTGTATATAT [CACACA_site9103],6.9
21,ATATATATATTAAGGGGTACGTAAAAAATTGGGAAG [XGTACX_site7322],8.31
22,AAATTATATCCCCTTTGTACTTACAGATCTTTATAC [XGTACX_site8163],7.04
23,AGTGTATTTTTATGTTGTACATGTAATATTTTTGAT [XGTACX_site541],7.08

row,Sequence,gcPBM binding intensity (ln)
1,TATATAATATATTAATGTACGTTATATGTATTCCTT [XGTACX_site6140],6.97
2,CTTTTTTTTTAAATATCACACACATATAATATATTC [CACACA_site9222],7.01
3,TAATTCATCATATGCACACACAATACCAAAATGTGC [CACACA_site191],7.29
4,TACAGATATTCATATAAACACACATACAAATTATGT [CACACA_site7929],6.96
5,TATGTGGCACAAAAGGGTACATATAATTTATACAGG [XGTACX_site5499],7.16
6,AAACAGAATGCATATACACACATACAAAAAAGTGCA [CACACA_site6591],8.49
7,TGTGTACCGATATTAAGTTTAACGTTATAAAAATAT [CACACA_negctrl_site1547],6.84
8,TTTCTAAACCGGTACAGTACATATAAAAATAGAATA [XGTACX_site6662],7.27
9,AAAGGACAAAAAAATGCATGCCGTTAAATTATGTAC [TGCATGCA_site512],6.99
10,GTACAAAAATAAATTGCACACATTTTAATAAAAAAA [CACACA_site2130],7.16
11,TATATTTATTTATATACACACATATTTATAAATATA [CACACA_site7047],7.02
12,AGATTTAAATATCATACACACTTTATCTATAATACA [CACACA_site6581],6.9
13,TAGTTGTTTATAACACGTTGACAGAAATGTTATGTA [GTGCAC_negctrl_site624],6.95
14,CAAAATTGACATGACGCACACAAGTGTAGATATTTT [CACACA_site1250],6.75
15,AAGCATTTCCATGGTGGTACTATACAAATAATAATT [XGTACX_site6193],6.8
16,TATAAATAATGTTAAACACACATACCGATATATAAC [CACACA_site7306],6.91
17,ATTTTTTTTTTTAAATGTACATAATATATATATAAT [XGTACX_site2686],7.03
18,TCTCTCTTATAAAATACACACGAACAATCATATTAT [CACACA_site8065],7.21
19,AAAAAAATTTGTATCACACACGTATTATAAAAAAAT [CACACA_site4182],6.86
20,TATTCGTGCAATAATGGTACACTTATAAATTATTCA [XGTACX_site1430],7.65
21,TATTAAACTAAATGTAGTACATACACAAACGTAATC [XGTACX_site4905],7.09
22,CGAACATTATAAATGTCATTTTTTCCAACTTGATCT [GTGCAC_negctrl_site501],6.69
23,TTTTTTTAAATATACACACACATTTATACCTATATA [CACACA_site7572],6.99

row,Sequence,gcPBM binding intensity (ln)
1,TATATATATATAGACACACACACACCCATATATATA [CACACA_site4117],9.12
2,TATAACTATAAAAGTAGTACACATATATATTATATA [XGTACX_site1391],7.79
3,AATGGTTTAAAATACTGTACATATATATAAAAGTAA [XGTACX_site6187],7.14
4,TTCCTAATTGACAACACACACAACAAAAAAGGGATT [CACACA_site1279],7.19
5,CACTAAAATAAACACACACACACACCGATATATATA [CACACA_site9379],7.58
6,CTTGTCATTTTGCACACACACATGTATAGGTTATTA [CACACA_site7431],7.78
7,TATATTTATATGATAACACACATAAATTATACATTT [CACACA_site1671],6.88
8,TTAATTTTATTTTTTTGTACACATAAATATTATAAA [XGTACX_site4680],7.16
9,AGTCTGAATAAAATTACACACATATACATATATATA [CACACA_site1780],7.41
10,TAAATATATTAAGCTTGTACATGAAAAAAAAAAAAA [XGTACX_site3264],7.13
11,ATATATAAATTTTAGTGTACATTAATTTTTTTTTTT [XGTACX_site7782],6.95
12,AAAAAAAAAAAAAAAACACACAATAAAGTAAAATTT [CACACA_site135],7.55
13,TATGTATATAAATTAACACACATATGTGGTTAATAG [CACACA_site3143],6.89
14,TACCTTTTTTGTTTTATGCACACCATATAACCAAGG [CACACA_site30],7.82
15,TAAAAAAAAAAAAAAGCATGCTATATTATATTACAC [TGCATGCA_site241],6.89
16,AAGAAATATTTATACACACACACAAACATATAAATA [CACACA_site6981],7.07
17,TATAACTATTCACAGACATGCACATAATAACAATAA [TGCATGCA_site207],8.14
18,TTTTTTTTTCCGTGTTGTACAAAAAAAAAGATTTTG [XGTACX_site3925],6.99
19,TATATTTTTTTTGTGCGTACATACCATTTTAATAAT [XGTACX_site2751],7.41
20,CACAAACAAAAACACACACACACACCCACAAAAATG [CACACA_site2429],7.06
21,TATTATTTTATGAATACACACATATACGAAAATATT [CACACA_site964],7.03
22,AATTATTGTATGCTATACGTTCCCCTCTAATTTATC [CACACA_negctrl_site1052],6.8
23,ATTGGGTACAAATACACACACATATAAATATTAATA [CACACA_site7173],7.11

row,Sequence,gcPBM binding intensity (ln)
1,TATTTTTATATAATGTGTACTTATACCTTATTTTTT [XGTACX_site1658],7.2
2,AAAAAAAAAAAACACACACACACACTAATACATACA [CACACA_site8135],7.21
3,TTTCCCTACCAAAAATGTACTTATAAGCGTTTTTAT [XGTACX_site739],6.88
4,TTTTTAAATTATTGCACACAAAAATGAAAGGAAAAA [CACACA_site1455],7.2
5,CTAAAAATCTTTTGTTGTACTTTTAGATAATCAGGA [XGTACX_site3968],7.06
6,TACATATTTATATACACACACACCGTCCGTGTTAAA [CACACA_site7413],6.95
7,AAGTAAAAAAATAGCACACACACAAAAACACAGACA [CACACA_site4839],7.45
8,AAAGGGATGTTCATTCTTTTTTTTTTTTTTGTATAT [CACACA_negctrl_site511],6.69
9,ATTTTCACCTGAACGGTGCATATTTAATTTTAGGTT,10.5
10,ATATATGTACAAATTGTGCGCAATAATTTTGTCTTT,7.4
11,ATAGAAACATATTGACGTACAGTATAATAATACAGT [XGTACX_site197],7.07
12,AAATCAACTTATTTTTGTACATATATTTATTATATA [XGTACX_site2925],6.99
13,TCTTTATGTAAGGTCTTCCACAAAAAAATTAAAAAA [TGCATGCA_negctrl_site229],7.05
14,GAAAAATTAATAAATAAACACACATATATATATATA [CACACA_site8835],9.9
15,ATATATTATAGAGGTGTGCACTACATACATTATAAT [GTGCAC_site9991],10.2
16,GAATGAAAATAAAATTGTACACATATCTATATCTAT [XGTACX_site2642],7.04
17,AAAAAAAAAAAAAGTTGTACATTATTTTCCTAATTC [XGTACX_site7998],6.91
18,TATATTATATGTATTGCACACCTTCAACAACTACTT [CACACA_site8121],7.25
19,TTTAATTAGGATAATTGTACTGAACTAAGTATATTT [XGTACX_site1871],6.79
20,ATACATATATATGTGTGTACATATGTGTATACATTT [XGTACX_site6544],7.13
